The campaign covered roughly 3,200 compounds. About 75 (2%) showed an effect of 50% or more. This is one part of the list.
Test system: T1, S. aureus MSSA476
T1 construct: MSSA476
Set-up: species or system S. aureus MSSA476 (TSB) or V. cholerae SAD30 (LB); 384-well bacterial growth screen at 25 uM, OD600 relative to DMSO control
Conditions: relative growth, OD600, TSB; 25 µM; inhibitor

Question: For `COc1ccc(C=C(C#N)C(=O)Nc2cccc3ccccc23)cc1` [9-E10, 2-cyano-3-(4-methoxyphenyl)-N-(naphthalen-1-yl)prop-2-enamide], which “% of control remaining” value is on record?
Answer: 100.375%

Question: `Cc1ccc(C)n1C1CCC(NC(=O)CCl)CC1` (stereo not drawn) [7-F18, 2-chloro-N-[4-(2,5-dimethyl-1H-pyrrol-1-yl)cyclohexyl]acetamide] was tested. Which “% of control remaining” value did it give?
Answer: 113.03%

Question: `C=CC(=O)NCCC(=O)N1CCCC1c1cn(C)nc1C` (stereo not drawn) [3-E10, N-{3-[2-(1,3-dimethyl-1H-pyrazol-4-yl)pyrrolidin-1-yl]-3-oxopropyl}prop-2-enamide] was tested. Which “% of control remaining” value did it give?
Answer: 105.181%

Question: Which “% of control remaining” value does the source give for `Cc1ccc(N(C(=O)CCl)C2C=CS(=O)(=O)C2)cc1` (stereo not drawn) [5-K13, 2-chloro-N-(1,1-dioxo-2,3-dihydro-1lambda6-thiophen-3-yl)-N-(4-methylphenyl)acetamide] here?
Answer: 104.189%

Question: For `C=CC(=O)N(Cc1ccc(Cl)o1)C1CCCC12CCOCC2` (stereo not drawn) [2-K05, N-[(5-chlorofuran-2-yl)methyl]-N-{8-oxaspiro[4.5]decan-1-yl}prop-2-enamide], which “% of control remaining” value is on record?
Answer: 104.091%

Question: How did the “% of control remaining” value turn out when `CN(C(=O)CCl)C1CCCCC1` [5-N07, 2-chloro-N-cyclohexyl-N-methylacetamide] was run?
Answer: 95.082%

Question: `C=CC(=O)Nc1nn(CC(C)C)cc1Cl` [2-G05, N-[4-chloro-1-(2-methylpropyl)-1H-pyrazol-3-yl]prop-2-enamide] was tested. Which “% of control remaining” value did it give?
Answer: 97.8242%

Question: How did the “% of control remaining” value turn out when `COc1cc(C=C(C#N)C(=O)NC(C)C)cc(Cl)c1O` [9-K11, 3-(3-chloro-4-hydroxy-5-methoxyphenyl)-2-cyano-N-(propan-2-yl)prop-2-enamide] was run?
Answer: 103.371%

Question: `C=CC(=O)NC1(c2cccc(F)c2)CCOCC1` [1-M04, N-[4-(3-fluorophenyl)oxan-4-yl]prop-2-enamide] was tested. Which “% of control remaining” value did it give?
Answer: 92.8352%

Question: How did the “% of control remaining” value turn out when `N#CCCN(C(=O)CCl)c1cccc(Cl)c1` [6-A17, 2-chloro-N-(3-chlorophenyl)-N-(2-cyanoethyl)acetamide] was run?
Answer: 89.4634%

Question: With `C=CC(=O)NCCC(=O)N1CCN(c2ccc(C#N)cc2F)CC1` [3-D07, N-{3-[4-(4-cyano-2-fluorophenyl)piperazin-1-yl]-3-oxopropyl}prop-2-enamide] as the compound, how does the “% of control remaining” value read?
Answer: 99.9565%

Question: `C=CC(=O)N1CCC(C(=O)N2CCc3ccccc32)CC1` [1-E09, 1-[4-(2,3-dihydro-1H-indole-1-carbonyl)piperidin-1-yl]prop-2-en-1-one] was tested. Which “% of control remaining” value did it give?
Answer: 90.7253%

Question: How did the “% of control remaining” value turn out when `C=CC(=O)NC(c1ccccc1)C1CCC1` (stereo not drawn) [1-G05, N-[cyclobutyl(phenyl)methyl]prop-2-enamide] was run?
Answer: 71.3846%

Question: Which “% of control remaining” value does the source give for `CC(Cl)C(=O)NC1CC=CCC1` (stereo not drawn) [6-K21, 2-chloro-N-(cyclohex-3-en-1-yl)propanamide] here?
Answer: 90.4878%

Question: Which “% of control remaining” value does the source give for `CC(Cl)C(=O)N1C2CCC1CC1(C2)CC1(F)F` (stereo not drawn) [6-N18, 2-chloro-1-{2',2'-difluoro-8-azaspiro[bicyclo[3.2.1]octane-3,1'-cyclopropan]-8-yl}propan-1-one] here?
Answer: 87.4146%

Question: Which “% of control remaining” value does the source give for `CC(C)Oc1ccccc1C=C(C#N)C(=O)Nc1cccc(Cl)c1` [9-P20, N-(3-chlorophenyl)-2-cyano-3-[2-(propan-2-yloxy)phenyl]prop-2-enamide] here?
Answer: 97.0787%

Question: `COc1ccc(S(=O)(=O)N(C)C)cc1NC(=O)CCl` [4-E05, 2-chloro-N-[5-(dimethylsulfamoyl)-2-methoxyphenyl]acetamide] was tested. Which “% of control remaining” value did it give?
Answer: 110.148%

Question: How did the “% of control remaining” value turn out when `CC(C)N1C(=O)C[C@H](NC(=O)CCl)[C@H]1c1ccc(Cl)c(F)c1` (racemic) [5-I11, rac-2-chloro-N-[(2R,3S)-2-(4-chloro-3-fluorophenyl)-5-oxo-1-(propan-2-yl)pyrrolidin-3-yl]acetamide] was run?
Answer: 90.7104%

Question: Which “% of control remaining” value does the source give for `O=C(CCl)N1CC(Cc2ccc(F)cc2F)C1` [5-G20, 2-chloro-1-{3-[(2,4-difluorophenyl)methyl]azetidin-1-yl}ethan-1-one] here?
Answer: 87.0674%

Question: Which “% of control remaining” value does the source give for `CN(CCNC(=O)CCl)S(=O)(=O)c1cccs1` [6-H11, 2-chloro-N-[2-(N-methylthiophene-2-sulfonamido)ethyl]acetamide] here?
Answer: 75.4634%

Question: With `Cc1ccccc1NC(=O)C(C#N)=Cc1ccc2c(c1)OCCO2` [8-J03, 2-cyano-3-(2,3-dihydro-1,4-benzodioxin-6-yl)-N-(2-methylphenyl)prop-2-enamide] as the compound, how does the “% of control remaining” value read?
Answer: 129.461%

Question: For `N#CC(=Cc1ccc(Cl)cc1)C(=O)Nc1ccncc1` [8-K20, 3-(4-chlorophenyl)-2-cyano-N-(pyridin-4-yl)prop-2-enamide], which “% of control remaining” value is on record?
Answer: 95.6017%

Question: With `C=CC(=O)N1CCCC1c1cc(C)no1` (stereo not drawn) [3-G12, 1-[2-(3-methyl-1,2-oxazol-5-yl)pyrrolidin-1-yl]prop-2-en-1-one] as the compound, how does the “% of control remaining” value read?
Answer: 91.5977%

Question: `Cc1ccc(C(=O)CCl)o1` [10-A09, 2-chloro-1-(5-methylfuran-2-yl)ethan-1-one] was tested. Which “% of control remaining” value did it give?
Answer: 137.188%

Question: Which “% of control remaining” value does the source give for `COc1ccc(CNC(=O)CCl)cc1OC` [5-O11, 2-chloro-N-[(3,4-dimethoxyphenyl)methyl]acetamide] here?
Answer: 81.6029%

Question: With `CC(Cl)C(=O)N1CCCN2c3ccccc3CC2C1` (stereo not drawn) [7-G06, 1-{1H,2H,3H,4H,5H,11H,11aH-[1,4]diazepino[1,2-a]indol-2-yl}-2-chloropropan-1-one] as the compound, how does the “% of control remaining” value read?
Answer: 95.4474%

Question: Which “% of control remaining” value does the source give for `C=CC(=O)Nc1cnc(C2CCCC2)nc1` [1-G17, N-(2-cyclopentylpyrimidin-5-yl)prop-2-enamide] here?
Answer: 114.989%

Question: For `C=CC(=O)NC1(c2cc(C)no2)CCOCC1` [1-F18, N-[4-(3-methyl-1,2-oxazol-5-yl)oxan-4-yl]prop-2-enamide], which “% of control remaining” value is on record?
Answer: 106.901%

Question: Which “% of control remaining” value does the source give for `Cc1ccc(C)c(Sc2ccc(NC(=O)CCl)cc2)c1` [4-H09, 2-chloro-N-{4-[(2,5-dimethylphenyl)sulfanyl]phenyl}acetamide] here?
Answer: 116.246%

Question: With `Cc1cc(C=C(C#N)C(=O)Nc2nccs2)cc(C)c1O` [9-D13, 2-cyano-3-(4-hydroxy-3,5-dimethylphenyl)-N-(1,3-thiazol-2-yl)prop-2-enamide] as the compound, how does the “% of control remaining” value read?
Answer: 97.9775%

Question: `C=CC(=O)N(C)CC(=O)N1CCN(c2nsc3ccccc23)CC1` [2-N10, N-{2-[4-(1,2-benzothiazol-3-yl)piperazin-1-yl]-2-oxoethyl}-N-methylprop-2-enamide] was tested. Which “% of control remaining” value did it give?
Answer: 111.053%

Question: With `CC(Cl)C(=O)Nc1ccc(F)c(F)c1F` (stereo not drawn) [4-O08, 2-chloro-N-(2,3,4-trifluorophenyl)propanamide] as the compound, how does the “% of control remaining” value read?
Answer: 94.5212%

Question: Which “% of control remaining” value does the source give for `O=C(CCl)N1CCN(S(=O)(=O)c2ccc([N+](=O)[O-])cc2)CC1` [4-J07, 2-chloro-1-[4-(4-nitrobenzenesulfonyl)piperazin-1-yl]ethan-1-one] here?
Answer: 127.68%

Question: Which “% of control remaining” value does the source give for `COc1ccc(S(=O)(=O)N2CCSSCC2)cc1C` [10-D11, 5-(4-methoxy-3-methylbenzenesulfonyl)-1,2,5-dithiazepane] here?
Answer: 107.188%

Question: For `C=CC(=O)N1CCC(C(=O)N2CCCC(C)(CC)C2)CC1` (stereo not drawn) [2-J10, 1-[4-(3-ethyl-3-methylpiperidine-1-carbonyl)piperidin-1-yl]prop-2-en-1-one], which “% of control remaining” value is on record?
Answer: 96.7798%

Question: How did the “% of control remaining” value turn out when `C=CC(=O)Nc1ccccc1CNS(C)(=O)=O` [3-F16, N-[2-(methanesulfonamidomethyl)phenyl]prop-2-enamide] was run?
Answer: 94.7323%

Question: With `C=CC(=O)NCc1ccc(C(=O)N2CCOC3(CCCC3)C2)cc1` [3-B05, N-[(4-{6-oxa-9-azaspiro[4.5]decane-9-carbonyl}phenyl)methyl]prop-2-enamide] as the compound, how does the “% of control remaining” value read?
Answer: 94.384%

Question: With `C=CC(=O)NCCc1nc(C)cs1` [2-D05, N-[2-(4-methyl-1,3-thiazol-2-yl)ethyl]prop-2-enamide] as the compound, how does the “% of control remaining” value read?
Answer: 103.742%

Question: With `C=CC(=O)N1CCCC1` [1-G08, 1-(pyrrolidin-1-yl)prop-2-en-1-one] as the compound, how does the “% of control remaining” value read?
Answer: 116.044%

Question: Which “% of control remaining” value does the source give for `N#CC(=Cc1cc(F)ccc1F)C(=O)NC1CCCCC1` [8-G08, 2-cyano-N-cyclohexyl-3-(2,5-difluorophenyl)prop-2-enamide] here?
Answer: 64.3983%

Question: With `CN(C)C1=NC(N)=NC(=C(C#N)C(=O)CCl)N1` [10-P20, 2-[4-amino-6-(dimethylamino)-1,2-dihydro-1,3,5-triazin-2-ylidene]-4-chloro-3-oxobutanenitrile] as the compound, how does the “% of control remaining” value read?
Answer: 96.25%

Question: With `C=CC(=O)NC12CC3CC(CC(C3)C1)C2` [1-E12, N-(adamantan-1-yl)prop-2-enamide] as the compound, how does the “% of control remaining” value read?
Answer: 103.385%

Question: How did the “% of control remaining” value turn out when `C=CC(=O)Nc1ncnc2c1cnn2Cc1cccc(C)c1` [1-M21, N-{1-[(3-methylphenyl)methyl]-1H-pyrazolo[3,4-d]pyrimidin-4-yl}prop-2-enamide] was run?
Answer: 98.1099%

Question: Which “% of control remaining” value does the source give for `CCN1C(=O)CC[C@H](CNC(=O)C(C)Cl)[C@H]1c1cnn(C)c1` (mixture of isomers) [6-L13, rac-2-chloro-N-{[(2R,3S)-1-ethyl-2-(1-methyl-1H-pyrazol-4-yl)-6-oxopiperidin-3-yl]methyl}propanamide] here?
Answer: 89.122%

Question: For `C=CC(=O)Nc1ccc(-n2cnnn2)c(F)c1` [1-I17, N-[3-fluoro-4-(1H-1,2,3,4-tetrazol-1-yl)phenyl]prop-2-enamide], which “% of control remaining” value is on record?
Answer: 115.692%

Reference: paper PMC11995724, “Antibiotic target discovery by integrated phenotypic and activity-based profiling of electrophilic fragments” (Cell chemical biology, 2025)
